Results reported in the supplement of paper PMC4166925.
± gives the standard deviation of the averaged measurements. Over roughly 33,000 sequences, “E-score (dimensionless, -0.5 to 0.5)” has its median near -0.049; the highest 2% begin near 0.37. This is one part of the list.

The sequences below were run on T1, PmTbr T-box DNA-binding domain (GST fusion) (assay: PBM E-score of 8-mer (E-score (dimensionless, -0.5 to 0.5)); Tbr is Tbrain of the sea star Patiria miniata (Pm) or the sea urchin Strongylocentrotus purpuratus (Sp); higher = stronger binding preference; most listed sequences are background and not binding sites). Settings: the construct has about 5 more residues each side.
T1 sequence: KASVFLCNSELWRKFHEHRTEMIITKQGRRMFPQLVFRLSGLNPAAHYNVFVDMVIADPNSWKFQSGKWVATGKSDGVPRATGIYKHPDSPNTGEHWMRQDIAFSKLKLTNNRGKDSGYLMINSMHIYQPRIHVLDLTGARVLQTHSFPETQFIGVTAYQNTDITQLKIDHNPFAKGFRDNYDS
Description: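 Universal protein-binding microarray (Agilent AMADID 016060, 60-bp probes with a 35-bp variable region) incubated with 200 nM GST-fused Patiria miniata Tbr T-box DNA-binding domain (residues 272-466) in PBS pH 7.5. Scored for every ungapped 8-mer (given with its reverse complement) by the Universal PBM Analysis Suite as E-score (modified Wilcoxon-Mann-Whitney enrichment, range -0.5 to 0.5; >0.45 counts as bound) and Z-score of median probe intensity. Two replicate arrays (datasets 1 and 2).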

In order of falling “PBM E-score of 8-mer” value:
1. ATTGGCAC  0.385 ± 0.0064
2. AAGTGTAA  0.381 ± 0.05
3. AATGTGAC  0.352 ± 0.014
4. GATCTCAC  0.336 ± 0.012
5. CTCGCTAA  0.3143 ± 0.00076
6. GACACTAA  0.293 ± 0.0056
7. GCGTTGAC  0.29 ± 0.0058
8. AGACACCA  0.2603 ± 0.00061
9. CGCGATAG  0.2514 ± 0.0021
10. CACCCGTC  0.251 ± 0.044
11. TCTCGTCA  0.226 ± 0.0041
12. AAACACAT  0.225 ± 0.049
13. GTTGCAAA  0.211 ± 0.036
14. CAAGTGGG  0.211 ± 0.016
15. GACTTGCA  0.197 ± 0.014
16. ACAGGTAG  0.175 ± 0.041
17. AAACGCGC  0.169 ± 0.0085
18. AAACGCAC  0.1473 ± 0.0014
19. ACGATTCG  0.125 ± 0.026
20. CACGAGGG  0.11 ± 0.017
21. ACCCCGCA  0.0949 ± 0.025
22. CCTGTTGA  0.091 ± 0.045
23. GATACGGA  0.0848 ± 0.025
24. AGAATAGC  0.0843 ± 0.0062
25. GAGCGTTA  0.0731 ± 0.02
26. CCCCTCGA  0.0588 ± 0.073
27. GGCTTAAC  0.054 ± 0.038
28. CGTGTGCA  0.0443 ± 0.011
29. AGATCCAC  0.0223 ± 0.095
30. GAGAACTC  0.022 ± 0.075
31. AACGGAAC  0.0218 ± 0.0039
32. AGCAAGGA  0.00816 ± 0.093
33. GAGGCAAC  0.004 ± 0.034
34. ACTGCGGG  -0.00779 ± 0.061
35. GTTGGTAA  -0.0132 ± 0.0082
36. AACAGCCC  -0.015 ± 0.027
37. CCCAATAA  -0.0316 ± 0.069
38. AGTTGTAT  -0.0326 ± 0.042
39. TCGACCCA  -0.0384 ± 0.048
40. TGGAGCAA  -0.0777 ± 0.022
41. GCAGGTTA  -0.0791 ± 0.045
42. TACTGCTA  -0.0813 ± 0.025
43. CAATGGGC  -0.0947 ± 0.0019
44. CTCCGCGC  -0.0982 ± 0.14
45. CCCAGGTA  -0.102 ± 0.03
46. AATAGCCA  -0.109 ± 0.0071
47. CGTGGAGA  -0.109 ± 0.058
48. GAGCGGAA  -0.111 ± 0.042
49. ATTCAAAT  -0.112 ± 0.087
50. TCCACCGA  -0.118 ± 0.049
51. AGAGAGTA  -0.12 ± 0.049
52. AGTCGTAC  -0.128 ± 0.048
53. TCTGGAAA  -0.131 ± 0.019
54. AGGACTAA  -0.132 ± 0.058
55. AGATCGCT  -0.135 ± 0.035
56. AGTGCCTC  -0.136 ± 0.0055
57. CCGACTAA  -0.138 ± 0.054
58. ATGAGCGG  -0.141 ± 0.023
59. ACGAGGGG  -0.153 ± 0.0082
60. ACGTCCAA  -0.167 ± 0.018
61. CTGCATGC  -0.176 ± 0.0035
62. ATCGTACG  -0.176 ± 0.0019
63. AAATGACT  -0.177 ± 0.018
64. TAAGATCA  -0.183 ± 0.0042
65. CGCTGCTA  -0.189 ± 0.036
66. AAAAACAG  -0.19 ± 0.027
67. GAATATGC  -0.192 ± 0.012
68. AGCCATTG  -0.194 ± 0.01
69. AGCAATAA  -0.195 ± 0.065
70. AAAGTCAT  -0.198 ± 0.053
71. AGGGTCTC  -0.201 ± 0.014
72. ATCTATGC  -0.21 ± 0.016
73. CTACGGAC  -0.212 ± 0.021
74. ATTACGGG  -0.213 ± 0.066
75. GCAAGCCA  -0.221 ± 0.037
76. AGAGTACA  -0.224 ± 0.032
77. GCTTATAC  -0.236 ± 0.077
78. AATTAATC  -0.246 ± 0.048
79. ATCAGACG  -0.248 ± 0.03
80. AAGGGATG  -0.275 ± 0.013
81. ATCCTCGG  -0.299 ± 0.075
82. ATCTGCTC  -0.303 ± 0.025
83. ATGCATGC  -0.32 ± 0.085
84. AGGCAAAT  -0.324 ± 0.053
85. AGGGCCCT  -0.344 ± 0.072
86. AAGATCAA  -0.348 ± 0.034
